# Experimental data reported in the antibiotic and cytotoxicity screens of Wong et al. (2023).
# This is one part of the list.
# Test system: HSkMC (human skeletal muscle cells)
# Assay: cytotoxicity call (relative viability < 0.9)
# Details: 10 µM
row,SMILES,cytotoxicity call
1,C[C@@H]1CN([C@@H](C)CO)C(=O)c2cc(/C=C/c3ccccc3)cnc2O[C@@H]1CN(C)C(=O)C1CCOCC1,inactive
2,C[C@@H]1CN([C@@H](C)CO)C(=O)c2cc(NS(=O)(=O)c3ccc(Cl)cc3)ccc2O[C@@H](C)CCCCO[C@@H]1CN(C)C(=O)Nc1cccc2ccccc12,inactive
3,C[C@H]1CCCCO[C@H](CN(C)Cc2ccc(C(=O)O)cc2)[C@@H](C)CN([C@@H](C)CO)C(=O)c2cc(NC(=O)Nc3ccc(C(F)(F)F)cc3)ccc2O1,inactive
4,Cc1noc(C)c1S(=O)(=O)Nc1ccc2c(c1)C(=O)N([C@@H](C)CO)C[C@H](C)[C@H](CN(C)Cc1ccc(C(F)(F)F)cc1)OCCCC[C@@H](C)O2,inactive
5,NC(Cc1c[nH]c2ccccc12)C(=O)O (stereo unspecified),inactive
6,C[C@@H]1CCCCO[C@H](CN(C)C(=O)c2ccncc2)[C@@H](C)CN([C@H](C)CO)C(=O)c2cc(NC(=O)C3CCCCC3)ccc2O1,inactive
7,Cc1ccccc1NCC(=O)NN,inactive
8,N=C(N)SC=CC(=O)O,inactive
9,CC(=O)O.Cc1c(-c2ccc(O)cc2)n(Cc2ccc(OCCN3CCCCCC3)cc2)c2ccc(O)cc12,inactive
10,C[C@@H]1CN([C@H](C)CO)C(=O)Cc2cc(NC(=O)Nc3cccc4ccccc34)ccc2O[C@@H]1CN(C)Cc1ccc(C(F)(F)F)cc1,inactive
11,C[C@@H]1CN([C@H](C)CO)C(=O)c2cc(NC(=O)CCN3CCOCC3)ccc2O[C@@H]1CN(C)S(=O)(=O)c1cn(C)cn1,inactive
12,Cc1noc(C)c1NC(=O)N(C)C[C@H]1Oc2ccc(NS(C)(=O)=O)cc2C(=O)N([C@H](C)CO)C[C@@H]1C,inactive
13,CC(C)NC(=O)Nc1ccc2c(c1)C(=O)N([C@H](C)CO)C[C@H](C)[C@H](CN(C)Cc1ccc(Cl)c(Cl)c1)OCCCC[C@@H](C)O2,inactive
14,COc1cccc(C#Cc2ccc3c(c2)O[C@H](CN(C)C(=O)CN2CCOCC2)[C@H](C)CN([C@@H](C)CO)S3(=O)=O)c1,inactive
15,CN1C(=O)c2cc(NC(=O)Cc3cccs3)ccc2OC[C@H]2O[C@@H](CC(=O)NCCc3ccncc3)CC[C@@H]21,inactive
16,C[C@@H]1CCCCO[C@@H](CN(C)S(=O)(=O)c2cccs2)[C@@H](C)CN([C@H](C)CO)C(=O)c2cc(NC(=O)Nc3ccc(F)cc3)ccc2O1,inactive

row,SMILES,cytotoxicity call
1,COCCC(=O)N1CCN(c2ccccn2)CC1,inactive
2,Cc1noc(C)c1S(=O)(=O)Nc1ccc2c(c1)C(=O)N([C@H](C)CO)C[C@@H](C)[C@@H](CN(C)C)OCCCC[C@H](C)O2,inactive
3,COc1ccc(CN(C)C[C@@H]2Oc3ccc(NC(=O)CCN4CCOCC4)cc3CC(=O)N([C@@H](C)CO)C[C@@H]2C)cc1,inactive
4,C[C@@H]1CCCCO[C@@H](CN(C)C(=O)Nc2ccccc2)[C@@H](C)CN([C@H](C)CO)C(=O)c2cc(NS(=O)(=O)c3ccccc3)ccc2O1,inactive
5,C[C@@H]1CN([C@H](C)CO)C(=O)c2cc(NC(=O)c3ccncc3)ccc2O[C@@H](C)CCCCO[C@H]1CN(C)Cc1ccccc1,inactive
6,O=C(O)C(S)C(S)C(=O)O (stereo unspecified),inactive
7,C[C@@H]1CN([C@H](C)CO)C(=O)c2c(c3ccccc3n2C)-c2ccccc2CO[C@H]1CN(C)Cc1cccc(C(F)(F)F)c1,inactive
8,C[C@H](CO)N1C[C@H](C)[C@H](CN(C)C(=O)Nc2ccc(F)cc2)OCCCC[C@H](C)Oc2ccc(NC(=O)Nc3cccc4ccccc34)cc2C1=O,inactive
9,CN1C(=O)c2cc(NS(=O)(=O)c3ccc(F)cc3)ccc2OC[C@@H]2O[C@@H](CC(=O)NCC(F)(F)F)CC[C@@H]21,inactive
10,Cc1ccc(NC(=O)c2ccc(CN3CCN(C)CC3)cc2)cc1Nc1nccc(-c2cccnc2)n1,inactive
11,Cc1ccc(S(=O)(=O)Nc2ccc3c(c2)C(=O)N([C@H](C)CO)C[C@@H](C)[C@H](CN(C)C(=O)Nc2ccc(C(F)(F)F)cc2)OCCCC[C@H](C)O3)cc1,inactive
12,COc1ccc(CN(C)C[C@H]2Oc3c(NC(=O)c4cc(C)nn4C)cccc3C(=O)N([C@H](C)CO)C[C@@H]2C)cc1,inactive
13,Cn1c(=O)c2c(ncn2C)n(C)c1=O,inactive
14,Cc1noc(C)c1NC(=O)N(C)C[C@@H]1OCCCC[C@H](C)Oc2ccc(NC(=O)Cc3ccccc3)cc2C(=O)N([C@H](C)CO)C[C@@H]1C,inactive
15,O=C(C[C@H]1CC[C@@H]2[C@H](COC[C@@H](O)CN2S(=O)(=O)c2ccccc2)O1)NCc1ccc(-c2ccccc2)cc1,inactive
